# PMC13083723 (Patterns, 2026)
# Among all 5,400 compounds or so, about 190 (3.5%) showed an effect of 50% or more. Some of the results follow.
# Test system: Vero-E6
# Test: primary screen, phospholipidosis by LipidTOX staining; higher = more effect of the substance
# Conditions: 10 µM
# Procedure, shortened: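 Single-concentration screen at 10 μM, with DMSO 0.1 v/v % and amiodarone 10 μM as controls. Read-out is LipidTOX Red phospholipid staining, which tolerates aldehyde fixation, in Vero-E6 cells.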
row,SMILES,result_ITMP [%]
1,CCCCC/C=C\C/C=C\C/C=C\CCCCC(=O)O,-4.09
2,NC1CCN(c2cccnc2)C1 (centres unmarked),2.68
3,O=C(O)Cc1cc2ccccc2nc1C(=O)O,1.45
4,N#Cc1nn(-c2c(Cl)cc(C(F)(F)F)cc2Cl)c(N)c1S(=O)C(F)(F)F (centres unmarked),-3.47
5,Cc1cccc(C)c1OCC(=O)N[C@@H](Cc1ccccc1)[C@@H](O)C[C@H](Cc1ccccc1)NC(=O)[C@H](C(C)C)N1CCCNC1=O,-3.25
6,CSCC[C@H](NC(=O)[C@H](Cc1ccccc1)NC(=O)CNC(=O)CNC(=O)[C@@H](N)Cc1ccc(O)cc1)C(=O)O,-5.97
7,CNCc1ccc(C)c(NC(=O)c2ccc(Nc3nc(-c4ccccc4)c4ccccc4n3)cc2)c1,67.4
8,O=C1CNC(=O)CN1,-1.53
9,O=C1Nc2ccc(Cl)cc2[C@@](C#CC2CC2)(C(F)(F)F)O1,-4.09
10,C[C@]12CCC(=O)C=C1CC[C@@H]1[C@@H]2[C@@H](O)C[C@]2(C)C(=O)CC[C@@H]12,-4.8
11,NCC(O)c1ccc(O)cc1 (centres unmarked),-3.77
12,c1ccc2sc(N3CCN(Cc4ccc5c(c4)OCO5)CC3)nc2c1,-3.98
13,CC(C)=CCC[C@](C)(O)[C@H]1CC[C@]2(C)[C@@H]1[C@H](O)C[C@@H]1[C@@]3(C)CC[C@H](O)C(C)(C)[C@@H]3[C@@H](O)C[C@]12C,-1.48
14,O=C(O)C1(c2ccc(-c3ccc(Cl)c(Cl)c3)c(F)c2)CC1,2.46
15,Cn1nccc1Nc1nccc(-c2ccn([C@H](CO)c3ccc(Cl)c(F)c3)c(=O)c2)n1 [R4A_0003897_001 / SPE_A20830788],1.66
16,CNCC/C=C/c1cccnc1,-4.64
17,Cc1ncc(CO)c(CN)c1O,1.44
18,O=c1[nH]c(CCl)nc2sc3c(c12)CCCC3,-2.42
19,O=C1c2cccc(O)c2C(=O)c2c(O)cccc21,-4.59

row,SMILES,result_ITMP [%]
1,O=c1cc(N2CCOCC2)oc2c(-c3ccccc3)cccc12,-6.91
2,Cc1cc(C)c(NC(=O)N(Cc2ccc3c(c2)Cc2ccccc2-3)C2CCCCCC2)c(C)c1,0.75
3,Nc1ncccc1-c1nc2ccc(-c3ccccc3)nc2n1-c1ccc(C2(N)CCC2)cc1,91.9
4,O=C(O)C1CN(CCCP(=O)(O)O)CCN1 (centres unmarked),-1.3
5,CCOC(N)=O,-6.37
6,O=C1Nc2ccccc2C2(CCN(CCc3ccc(C(F)(F)F)cc3)CC2)O1,6.16
7,CCC(CO)(C(=O)OC1CC2CCC(C1)[N+]2(C)C)c1ccccc1 (centres unmarked),0.66
8,Cc1cnc(NC(=O)Nc2cc(Br)c(C)cc2OC[C@@H]2CNCCO2)cn1,23.3
9,CCCCCN(CCCOC)C(=O)[C@@H](CCC(=O)O)NC(=O)c1ccc(Cl)c(Cl)c1,-0.96
10,N[C@H](C(=O)O)c1ccc(C(=O)O)c(O)c1,-1.24
11,Nc1cc(C(F)(F)F)c(-c2cc(N3CCOCC3)nc(N3CCOCC3)n2)cn1,6.83
12,CC(C)NNC(=O)c1ccncc1,-6.05
13,Cc1ccc(Sc2cncc3sc(C(N)=O)cc23)cc1,-2.48
14,CNCC(=O)O,-4.12
15,O=C1S/C(=C\c2ccc(OCc3cccc(B(O)O)c3)cc2)C(=O)N1Cc1ccc(F)cc1,17.3
16,C=CCNc1ncnc2ccc(Br)cc12,-2.54
17,CC(C)=CCC[C@](C)(O[C@@H]1O[C@H](CO)[C@@H](O)[C@H](O)[C@H]1O)[C@H]1CC[C@]2(C)[C@@H]1[C@H](O)C[C@@H]1[C@@]3(C)CC[C@H](O[C@@H]4O[C@H](CO)[C@@H](O)[C@H](O)[C@H]4O[C@@H]4O[C@H](CO)[C@@H](O)[C@H](O)[C@H]4O)C(C)(C)[C@@H]3CC[C@]12C,-0.31
18,C[C@]12CC[C@H](O)C[C@H]1CC[C@@H]1[C@@H]2CC[C@]2(C)[C@@](O)(c3ccoc3)CC[C@]12O,-7.29
19,CCOC(CN1CCN(CC(C)C(=O)c2ccccc2)CC1)c1ccccc1 (centres unmarked),6.42

row,SMILES,result_ITMP [%]
1,OCC(CO)N[C@H]1C[C@](O)(CO)[C@@H](O)[C@H](O)[C@H]1O,7.39
2,COc1ccc(S(=O)(=O)N2CCC[C@H]2C(=O)Nc2cc(C)cc(C)c2)cc1,-5.81
3,O=C(NCC1CCOCC1)c1cnc(Nc2ccc(Cl)cc2Cl)nc1C(F)(F)F,-8.68
4,Cc1cc(Nc2ncnc3ccc(NC4=NC(C)(C)CO4)cc23)ccc1Oc1ccn2ncnc2c1,-7.95
5,CC1(C)CN2C(CS/C(=N/C3CCCCC3)NC3CCCCC3)=CSC2=N1,49.5
6,Cc1cccc(Oc2nc3c(C)cccn3c(=O)c2/C=C(\C#N)c2nc3ccccc3s2)c1,-2.64
7,COC(=O)[C@@]12OC[C@]34[C@H]([C@@H](O)[C@@H]1O)[C@@]1(C)CC(=O)C(O)=C(C)[C@@H]1C[C@H]3OC(=O)[C@H](OC(=O)/C=C(\C)C(C)C)[C@@H]24,-3.12
8,CCc1ccc(/C=C2/SC(=S)NC2=O)cc1,0.78
9,COC(=O)[C@@H](N)CCCNC(=N)N[N+](=O)[O-],-7.77
10,CCN(CC)CCNC(=O)c1cc(Br)c(N)cc1OC,-5.26
11,CC(C)=CCC/C(C)=C/CC/C(C)=C/CSc1ccccc1C(N)=O,-0.49
12,CC1(C)O[C@@H]2[C@@H](CO[C@@]3(COS(N)(=O)=O)OC(C)(C)O[C@@H]23)O1,-2.52
13,COc1cc(Nc2ncc3c(n2)-c2ccc(Cl)cc2C(c2c(F)cccc2OC)=NC3)ccc1C(=O)O,2.58
14,OC(CCN1CCCCC1)(c1ccccc1)c1ccccc1,3.27
15,CCN(CC)CCNC(=O)c1ccccc1I,-6.63
16,Cc1c(Cl)c(C)[n+]([O-])c(Cl)c1-c1noc(-c2cc(O)c(O)c([N+](=O)[O-])c2)n1,-1.09
17,CCc1cc2c(c(CC)n1)CCC(=O)N2Cc1ccc(-c2ccccc2-c2nnn[nH]2)cc1,-1.67
18,O=C1C[C@@]2(C(=O)N1)C(=O)N(Cc1ccc(Br)cc1F)C(=O)c1cccn12,0.4
